{
  "source": "patent US7718668B2",
  "about": "“Salts of 6-heterocycle substituted hexahydrophenanthridine derivatives” (Nycomed GmbH, priority 2005, dated 2010)",
  "note": "Read-outs that look alike come from different tables or passages of the source. Entries with a single value are a further part of the results.",
  "data": [
    {"compound": "CCOc1cc2c(cc1OC)C(c1ccc(OC)nc1OC)=N[C@@H]1CC[C@@H](O)C[C@H]21", "note": "[compound 8, (2R,4aR,10bR)-6-(2,6-Dimethoxy-pyridin-3-yl)-9-ethoxy-8-methoxy-1,2,3,4,4a, 10b-hexahydro-phenanthridin-2-ol]", "values": [
      {"measurement": "melting point", "setting": "ethandisulfonate salt", "value": 233, "unit": "°C"},
      {"measurement": "melting point", "setting": "ethansulfonate salt", "value": 216, "unit": "°C"}
    ]}
  ]
}
